Variants at the floor of the assay are shown more often than the library holds them.
B1: TPR 5TU (parent)
chain: GGAUCUUCUCGAUCUAACAAAAAAGACAAAUCUGCCACAAAGCUUGAGAGCAUCUUCGGAUGCAGAGGCGGCAGCCUUCGGUGGCGCGAUAGCGCCAACGUUCUCAACUAUGACACGCAAAACGCGUGCUCCGUUGAAUGGAGUUUAUCAUG

Variants of: B1
Experiment: polymerase ribozyme fitness, log enrichment relative to wild type (log ratio); higher = more active; in vitro selection for triplet polymerase activity
Method in brief: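 For each subunit of a heterodimeric triplet polymerase ribozyme, a mutant library was built by PCR and transcribed, then taken through a single in vitro selection round in triplicate. Selection involved annealing to a biotinylated primer, the partner subunit and triplets, incubation frozen at −7 °C, gel excision of extended constructs, capture on streptavidin beads and RT-PCR. Genotypes were retained after Illumina sequencing of inputs and outputs only with ≥10 input reads and ≥1 read in each output. Fitness is defined as the logarithm of a genotype's enrichment relative to wild-type enrichment, using inverse-variance-weighted averages across replicates, with the logarithm taken to base 2.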

Polymerase ribozyme fitness (log ratio), ≤ -4.2:
GGAUCUUCCCGAUCUAACAAAAAAGGCAAAUCUGCCACAAAGCUUGAGAGCAUCGUCGGAUGAAGAGGCGGCAGCCUUCGGUGGCGCGAUAGCUCCAACGUUCUCAACUAUGACACGCAAAACGCGAGCACCGUUGAAUGGAGUUUAUUAUG [U9C A26G U55G C63A G94U U127A U130A C149U]
GGAUCUUCACGAUCUAACAAAAAAUUCAAAUCUGCCACAAAGCUUGAGAGCAUCUUCGGAUGCAGAGGCGGCAGCCAUUGCUGGCGCGAUAGCGCCAACGUUCUCAACUAUGACACGCAAACCGCGUGCUCCGUUGAAUGGAGUUUAUCAUG [U9A G25U A26U U77A C79U G81C A122C]
GGAUCUUCCCGCUCUAACAAUAAAGACAAAUCUGCCACAAAGCUUGAGAGCAUCUUCGGAUGCAGAGGCGGCAGCCUUCGGUGGCGCGAAAGCGCCAACGUUCUCAACUAUGACACGCAAAACGCGUGCUCCGUUGAAUGGCGUUUAACAUG [U9C A12C A21U U90A A142C U148A]
GGAUCUUCCCGAUCUAACAAAAUAGACAAAUCUGCCACAAAGCUUGAGAGCAUCUUCUGAUGCAGAGGCGGCUGCCUUAGGUCGCACGAUAGCGCCAACGUUCUCAGCUAUGACACGCAAAACGCGUGCUCCGUUGAAUGCAGUUUAUCAUG [U9C A23U G58U A73U C79A G83C G86A A107G G141C]
GGAUCUUCACGAUCUAACAAAAAAGACAAAUCUGGCACAAAGCUUGAGAGCAUCUUCGGAUGCAGAGGCGGCAGCCUUCGGUGGCACGAUAGCGCCAACGUUCUCAACUAUGACACGCACAACGUGUGCUCCGUUGAAUGGACUUUAUCAUG [U9A C35G G86A A120C C125U G143C]
GGAUCUUCACGAUCUAACAAAAAAGACAAAUCUGCCACAAAGCUUGAGAGCAUCUUCGGAUGCAGAGGCGGCAGCCUUCGGUGGCGCGAUUGCGACAACGUUCUCAACUAUGACACGCAAGACGCGUGCUCCGUUGAAUGGAGUUUAUCAUG [U9A A91U C95A A121G]
GGAUCUUCACGACCUAACAAAAAAGACAAAUCUGCCCCAAACCUUGAGAGCAUCUUCGGAUGCAGAGGCGGCAGCCUUCGGUGGCGCGAUGGCGCCAACGUUCUCAACUGCGACACGCAAAACACGUGCUCCGUUGAAUGGAGUUUAUCAUG [U9A U13C A37C G42C A91G A110G U111C G124A]
GGAUCUUCACGAUCUAACAAAAAAGACAAAUCUGCCACAAAGCUUGAGAGCGUCUUCGGAUGCAGAGGCGGCAGCCUUCGGUGUCGCGAAAACGCCAACGUUCUCAACUAUGACACGCAAAACGCGUGCUCCGUUGAAGGGAGUUUAUCAUG [U9A A52G G84U U90A G92A U139G]
GGAUCUUCCCGAUCUAACAACAAAGACAAAUCUGCCACAAAGCUUGAGAGCAUCUUCGGAUGCAGAGGCGGCAGCAUUCGGUGGCGCGAUAGCACCAACGUUAUCAACUAUGACACGCAAAACGCGUGCUCCGUUGAAUGGAGUUUAUCAUG [U9C A21C C76A G94A C103A]
GGAUCUUCACGAUCUAACAAAAAAGACAAAUUUGCCACAAAGCUUGAGAGCAUCUUCGGAUGCAGAGGCGGCAUCCUUCGGUGGCGCGAUUGCGCCAACGUUCUCAACUAUGACACGCAAAACGCGUGCUCCGUUGAAUGGAGUUUAUCAUG [U9A C32U G74U A91U]
GGAUCUUCACGAUCUAACAAAAAAGACAAAUCUGCCACAAAGCUUGAGAGCAUCAUCGGAUGCAGAGGCGGCAGCCUUCGGUGGUGCGAUAGCACCAACGUUCUCAACUAUGAUACGCAAAACGCGUGCUCCGUUGAAUCGAGUUUAUCAUG [U9A U55A C85U G94A C114U G140C]
GGAUCUUCCCGAUCUAACAAACAAGACAAAUCUGCCACAAAGCUUGAGAGCAUUUUUGGAUGCAGAGGCGGCAGCCUUCGGUGGCGCGAUAGCGCCAACUUUCUGAACUAUGACACGCAAAACGCGUGCUCCGUUGAAUGGAGUUUAUCAUG [U9C A22C C54U C57U G100U C105G]
GGAUCUUCACGAGCUAACAAAAAAGACAAAUCUGCCACAAAUCUUGAGAGCAUCUUCGGAAGCAGAGGCGGCAGCCUUCGGUGGCGCGAUUGCGCCAACGUUCUCGACUAUGACACGCAAAACGCGUGCUCCGUUGAAUGGCGUUUAUCAUG [U9A U13G G42U U61A A91U A106G A142C]
GGAUCUUCACGAUCUAACAAAAAAGACAAAUCUGUCACAAAGCUUGAGAGCAUCAUCGGAUGCAGAGGCGGCAGCCUUCGGUGGCGCGAUCGCGCCAACGUUCUCAACUAUGACACGCAAAACGCGUGCUCCGUUGAAUGGAGUUUAUCAUG [U9A C35U U55A A91C]
GGAUCUUCACAAUUUAACGAAAAAGACAAAUCUGCCACAAAGCUUGAGAGCAUCUUCGGAUGCAGAGGCGGCAGCAUUCGGGGGCGCGAUAGCGCCAACGUUAUCAACUAUGACAUGCAAAACGCGUGCUCCGUUGAAUGGAGUUUAUCAUG [U9A G11A C14U A19G C76A U82G C103A C116U]
GGAUCUUCACGAUCUAACAAAAAAGACAAAUCUACCACAAAGCUUGAGAGCAUCUUCGGAUGCAGAGGCGGUAGCCUUCGGUGGCGCCAUAGCGCCAACGUUCUCGACUAUGACACGCAAAACGCGUGCUCCGUUGAAUGGAGUUUAUCAUG [U9A G34A C72U G88C A106G]
GGAUCUUCCCGAUCUAACAAAAAAGACAAUUCUGACACAAAGCUUGAGAGCAUCUUCGGAUGCAGAGGCGGCAGCCUUCGGAGGCGCGAUUGAGCCAACGUUCUCAACUAUGACACGCAAAACGCGUGCUCCGUUGAAUUGAAUUUAUCAGG [U9C A30U C35A U82A A91U C93A G140U G143A U151G]
GGAUCUUCACGAUCAAACAAAAAAGACAAAUCUGCCACAAAGCUUGAGAGCAUCUUCGGAUGCAGAGGCGGCAGCCUUCGGUGGCGCGAUAGUGCCAACGUUGUCAACUAUGACACGCAAAACGCGUGCUCCGUUGAAUGGAGUUUAUCAUG [U9A U15A C93U C103G]
GGAUCUUCACGAUCUAACAAAAAAGACAAAUCUACCACAAAGCUUGAGAGCAUCUUCGGAUGCAGAGGCGGCAGCCUUCGGUGGCGCGUUAGCGACAACGUUCACAACUAUGACACGCAAAACGCCUGCUCCGUUGUAUGGAGUUUAUCAUG [U9A G34A A89U C95A U104A G126C A137U]
